Screen size: about 94,000 compounds; about 6,200 (6.6%) were called active. This list was built around the results that the source calls inconclusive (neither active nor inactive); the mix of calls is not that of the screen. Calls come from the whole dose curve; as a rule, active = well fitted inhibition curve with a large enough effect; inconclusive = small, poorly fitted or top-dose-only effect; inactive = flat fitted curve, though single readings scatter. Potencies beside an inconclusive call are fits to weak or partial responses and may not hold up.
Assay: Cytotoxic Profiling in HEK 293 Cell Line of Diverse Libraries Using Quantitative High-Throughput Screening; note: nearly all actives have a fitted effect of over 60% in size
Settings: HEK 293 viability, ATP luminescence (CellTiter-Glo), 48-72 h; series mostly up to 115 µM
Outline: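 250 HEK 293 cells/well; compound by pintool; incubated 48 or 72 hr at 37 degree Celsius; CellTiter-Glo added, 10 min RT, luminescence imaged.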
In the case of `O=S(=O)(c1ccccc1)N1Cc2ccccc2CC2(CCN(Cc3cccnc3)C2)C1` (centres undefined), the Potency is reported as inconclusive: 50.1 µM [inhibitor, partial curve, poor fit]. In the case of `CCOCCNC(=O)C1CCCCN1Cc1ccc(-c2cccs2)cc1` (centres undefined), the Potency is reported as inconclusive: 35.5 µM [inhibitor, partial curve, poor fit]. For `Cc1ccc(-c2ccccc2CN2CCN([S+](=O)([O-])c3cccc(C(F)(F)F)c3)CC2)cc1Cl`, the Potency was inconclusive: 10 µM [inhibitor, full curve, poor fit]. With `COc1cccc(C(=O)N2C(C(=O)NCC(C)C)COC23CCN(C(=O)c2ccccc2F)CC3)c1` (centres undefined) the Potency was “inactive”. In the case of `Cc1c(C(=O)N2CC[C@](C)(O)[C@@H](O)C2)[nH]c2c(F)cccc12`, the Potency is reported as “inactive”. In the case of `CC(C)N1C[C@H](O)C[C@H]1c1nnc2n1CCN(C(=O)CC1CCCCC1)C2`, the Potency is reported as “inactive”. With `COc1ccc(OC)c(-c2cnc3[nH]cc(CC(=O)NCc4cccnc4)c3c2)c1` the Potency was inconclusive: 89.1 µM [inhibitor, partial curve]. In the case of `COc1ncccc1C(=O)N1Cc2cnn(Cc3ccc(F)cc3)c2C1`, the Potency is reported as “inactive”. In the case of `O=C(CCC1CCCC1)NC1CCN(c2cnn(Cc3ccccc3)c(=O)c2)CC1`, the Potency is reported as inconclusive: 56.2 µM [inhibitor, partial curve, poor fit]. For `O=C(N1CCOCC1)N1CCN(c2ccc3nnc(-c4ccccc4)n3n2)CC1`, the Potency was “inactive”. With `C=CCCC(CN1CCSCC1)Oc1ccc(C#N)cn1` (centres undefined) the Potency was “inactive”. In the case of `Cc1cn2nc(C(=O)NCCc3ccccc3)cc2c(N2CCSCC2)n1`, the Potency is reported as inconclusive: 50.1 µM [inhibitor, partial curve, poor fit]. In the case of `CN(C)[S+](=O)([O-])c1ccc2c(c1)OCCN(Cc1cccs1)C2`, the Potency is reported as inconclusive: 35.5 µM [inhibitor, partial curve, poor fit]. For `COc1ccc(CC(=O)NC2CCc3nnc(C)n3CC2)cc1` (centres undefined), the Potency was “inactive”. For `CCOc1ccc(Cl)cc1CN(C)CC1(O)CCCNC1` (centres undefined), the Potency was inconclusive: 50.1 µM [inhibitor, partial curve, poor fit]. With `O=C(Nc1ccccc1)N[C@H]1CO[C@H]2[C@@H]1OC[C@@H]2Nc1nccc(C2CCCC2)n1` the Potency was “inactive”. With `COc1cccc(CN2CCOC3CCN(Cc4ccccc4O)CC3C2=O)c1` (centres undefined) the Potency was inconclusive: 89.1 µM [inhibitor, partial curve, poor fit]. In the case of `COc1ccc(S(=O)(=O)NC[C@H]2COCc3nc4ccc(C)cc4n32)cc1`, the Potency is reported as inconclusive: 100 µM [inhibitor, partial curve]. In the case of `COc1ccc(-n2c(=O)c(C(=O)NCc3cccs3)nc3cccnc32)cc1`, the Potency is reported as “inactive”. For `C[C@@H]1CN(c2cc(C3CC(O)C3)ncn2)C[C@H](C)O1` (some centres undefined), the Potency was “inactive”. In the case of `COc1ccc(S(=O)(=O)N2CCc3nc4cc[nH]n4c(=O)c3C2)cc1Cl`, the Potency is reported as “inactive”. For `Cc1nc(C2CCCCN2)n[nH]1` (centres undefined), the Potency was “inactive”. In the case of `COc1ccc(OC)c(-c2ccc3ncn(-c4ccc(F)cc4F)c(=O)c3n2)c1`, the Potency is reported as inconclusive: 112 µM [inhibitor, single point]. In the case of `CCOC(=O)N1CCC(COc2ccc3c(cnn3CCC(=O)O)c2)CC1`, the Potency is reported as “inactive”. In the case of `c1ccc(CCN2CCNc3cc(NCCN4CCOCC4)ncc3C2)cc1`, the Potency is reported as inconclusive: 70.8 µM [inhibitor, partial curve, poor fit]. With `CNc1nc(C(=O)NCc2ccc3[nH]c(-c4ccc(F)cc4)c(C)c3c2)cs1` the Potency was active: 39.8 µM. With `CCOc1ccccc1NC(=O)Cn1ccn2nc(-c3ccccc3)c(CO)c2c1=O` the Potency was inconclusive: 39.8 µM [inhibitor, partial curve]. For `Cc1cc(C)cc(-c2ccc(CN3CCCC3C(=O)Nc3ccccc3F)cc2)c1` (centres undefined), the Potency was inconclusive: 35.5 µM [inhibitor, partial curve, poor fit]. In the case of `O=C(NCc1ccc(Cl)cc1)c1ccc(CN2C(=O)NC3(CCOCC3)C2=O)cc1`, the Potency is reported as inconclusive: 56.2 µM [inhibitor, partial curve, poor fit]. In the case of `Cc1ccc(Nc2ccnc(N3CCC(NC(=O)Nc4ccccc4)CC3)n2)cc1`, the Potency is reported as inconclusive: 35.5 µM [inhibitor, partial curve, poor fit]. With `CC(C)(C)C(=O)N1CCC2(CC1)Cc1ccccc1NC2=O` the Potency was inconclusive: 126 µM [inhibitor, single point]. In the case of `O=S(=O)(c1ccc(Cl)cc1)N1CCOC[C@H](Oc2ccc(C(F)(F)F)cc2)C1`, the Potency is reported as inconclusive: 44.7 µM [inhibitor, partial curve]. In the case of `COCc1nc(C2CCN(C(=O)NC3CCCCC3)C2)no1` (centres undefined), the Potency is reported as “inactive”. In the case of `CCc1noc(-c2cccn3c(CNC(=O)c4ccc5ccccc5n4)nnc23)n1`, the Potency is reported as active: 35.5 µM. With `O=C(CCCc1ccccc1)N1CCC2(CC1)CC(N(Cc1ccccc1)C1CC1)CCO2` (centres undefined) the Potency was inconclusive: 50.1 µM [inhibitor, partial curve, poor fit]. In the case of `CCC(C)NC(=O)C(NC(=O)c1ccc2c(c1)OCO2)C1CCN(C(=O)c2ccccc2F)CC1` (centres undefined), the Potency is reported as “inactive”. For `Cc1sc2nc(CCN)nc(N(C)CCCCN3CCOCC3)c2c1C`, the Potency was inconclusive: 89.1 µM [inhibitor, single point]. With `CCC1COCCN1Cc1cn(-c2ccccc2)nc1-c1ccc(OC)cc1F` (centres undefined) the Potency was inconclusive: 79.4 µM [inhibitor, single point]. In the case of `CCn1cc2c3c(cccc31)CN(C(=O)COc1ccc(F)cc1)CC2`, the Potency is reported as inconclusive: 44.7 µM [inhibitor, partial curve, poor fit]. For `Cn1cccc1C(=O)N1C[C@@H](CO)[C@H](c2ccncc2)C1`, the Potency was “inactive”. For `c1ccc(-c2nc(C3CC3)no2)c(OC2CN(Cc3ccncc3)C2)c1`, the Potency was inconclusive: 89.1 µM [inhibitor, single point]. In the case of `COc1ccccc1-c1ccc(CN2CCCCC2C(=O)NCC(F)F)cc1` (centres undefined), the Potency is reported as inconclusive: 50.1 µM [inhibitor, partial curve, poor fit]. In the case of `Cc1ccc(OC2(C(=O)NCC3COc4ccccc4O3)CCNCC2)cc1` (centres undefined), the Potency is reported as active: 35.5 µM. In the case of `Cc1ccc(C(=O)N2CCn3c(nn(-c4cccc(Cl)c4)c3=O)C2)cc1`, the Potency is reported as inconclusive: 89.1 µM [inhibitor, partial curve, poor fit].

Reference: PubChem BioAssay AID1345083 (National Center for Advancing Translational Sciences (NCATS), 2018)
Potency is the fitted concentration of half-maximal effect; tags give direction and shape of the fitted curve.
